In ChEMBL document CHEMBL4888484, “Replenishing the malaria drug discovery pipeline: Screening and hit evaluation of the MMV Hit Generation Library 1 (HGL1) against asexual blood stage Plasmodium falciparum ,using a nano luciferase reporter read-out” (2022):
In all, about 150,000 compounds went through this assay and about 540 (0.36%) showed an effect of 50% or more. The list shows a part of the results.

system: Plasmodium falciparum; experiment: Primary screen in NF54 nanoGlo assay, in single point, at 2uM, 72h; a lower Z score goes with more inhibition; format: functional, Erythrocyte; settings: timepoint 72 hour

SMILES	% Inhibition	Z score
O=C(N[C@@H]1C=C[C@H](CO)C1)c1cccnc1C1CC1	5%	-0.62
COc1cnccc1CNc1nc(CC(C)C)ns1	-7%	1.45
CCc1cnc(C)nc1N1CCC2(CCC(=O)N([C@H]3CCN(C)C3)C2)CC1	-7%	1.13
O=C(Cc1cccs1)N[C@@H](Cn1nccn1)c1ccccc1	-15%	2.28
CCCNC(=O)Cn1cc2c(n1)CCN(C(=O)OC(C)(C)C)C2	-7%	1.06
O=C(NCc1ccc(F)cc1)N1CCCN([C@H]2CCOC2)CC1	-8%	1.43
Cc1ccn2c(NC(=O)C3=NN(c4ccccc4)C(=O)CC3)nnc2c1	-11%	1.56
NC(=O)c1ccc(NC(=O)Cn2ccc3cc(OCc4ccccc4)ccc32)cc1	-16%	2.03
CCN(C(=O)c1ccnc(N(C)C)c1)C1CC1	0%	-0.03
Cn1c(=O)ccc2ccc(NC(=O)N3CCCC4(CC3)CC4)cc21	-13%	1.65
C[C@@H](Cn1cncn1)c1nc(Cc2cccs2)nn1CC(C)(C)O	-8%	1
COc1cc2c(cc1OC)CN(C(=O)Cn1c(C)ccc1C)CC2	-20%	2.46
NC(=O)CCS(=O)(=O)CCn1cc(-c2cccc(Cl)c2)nn1	-4%	0.78
Cn1nc(NC(=O)NC2CCC3CCCC3C2)cc1C1CC1 (stereo not given)	-12%	1.49
COc1ccc(CNC(=O)c2nc[nH]c2C(=O)NCCC(C)C)cc1	-5%	0.6
CN(C)S(=O)(=O)Cc1ccc(Br)cc1F	3%	-0.5
CC(C)NC(N)=NCc1c(F)c(F)cc(F)c1F	-12%	1.4
O=C(Nc1ccc(Cl)cc1)c1nnc([C@H]2CCCN(C(=O)CC3CCCC3)C2)s1	-5%	0.78
CCn1ccnc1CN(C)Cc1nc(-c2ccc(-c3ccccc3)cc2)oc1C	-4%	0.63
COc1ccccc1Oc1cc(N2CCN(C(=O)c3ccc(C)cc3)[C@@H](C)C2)ncn1	-10%	1.43
O=C(Nc1nnc(C(F)F)s1)N[C@H]1CCCC12CCCCC2	-4%	0.51
CC1CCCc2ccccc2C1NC(=O)c1cn[nH]c1 (stereo not given)	-13%	1.66

SMILES	% Inhibition	Z score
O=C(NC(C1CCCO1)C1(CO)CCC1)c1ccc(O)c(F)c1 (stereo not given)	-9%	1.66
Cc1ccc2[nH]c(C3CN(C(=O)C4(c5ccccc5)CCOCC4)C3)nc2c1	-8%	1.53
Cn1ccc(-c2cc(C(=O)N(C3CC3)[C@H]3CCc4ccccc43)no2)n1	-2%	0.47
CC(C)c1cc(N(C)Cc2cccnc2)nc(N)n1	-4%	0.41
Cn1ncc2c1CCC[C@@H]2Nc1nccc(C(F)(F)F)n1	1%	-0.13
C[C@H](NC(=O)c1ccc(CN2C(=O)CNC2=O)cc1)c1ccccc1	-15%	2.79
Cc1cnc(C(=O)Nc2ccnn2Cc2cccs2)cn1	-3%	0.45
Cc1cccc(NC(=O)N2CCCC[C@H]2c2nn(C)c3c2COCC3)c1C	-10%	0.95
CN(C[C@H]1COc2ccccc2O1)c1cc(C2CCNCC2)ncn1	6%	-0.96
NC(=O)NCc1ccc(NC(=O)[C@H](Oc2ccccc2)c2ccccc2)cc1	11%	-1.5
CN(C(=O)c1ccc(C#N)cn1)c1ccc(Cl)cn1	-8%	1.55
COCCOCc1cccc(-c2n[nH]c3ncnc(N)c23)c1	2%	-0.22
COc1cccc(CC(=O)N2CCc3nc(N4CCCCC4)nc(N(C)C(C)C)c3C2)c1	-2%	0.36
CC(=O)c1cccc(NC(=O)Cn2cc(C(=O)c3ccncc3)c(=O)c3cc(Br)ccc32)c1	6%	-0.95
CCn1nc(C(=O)Nc2cccc(OC)c2)cc1-c1cc(C)sc1C	-2%	0.36
Cc1cc([C@@H]2CCCCCN2S(=O)(=O)c2ccc(F)cc2)on1	5%	-0.72
O=C(c1cnccn1)N1CC[C@H](c2nc(-c3ccncc3)no2)C1	-13%	1.51
CC[C@H](C)N1CCC(=O)N(CC(=O)c2[nH]c(C)c(C(C)=O)c2C)C1=O	6%	-0.85
COCC(=O)N(CCn1ccnc1C)C1CCN(C(=O)C2(C)CCCCC2)CC1	0%	0.06
Cc1ccc(NC(=O)c2cc(N3C(=O)C4CC=CCC4C3=O)ccc2N2CCCCC2)cc1 (stereo not given)	-16%	2.17
Oc1ccc(-c2cc(O)cc(CC[C@H]3CCCCN3)c2)nc1	-14%	1.77
COc1cc(C)sc1C(=O)NCCN1CCCCC1	-9%	1.86

SMILES	% Inhibition	Z score
CCOC1CC1C(=O)N1CCCC(Cn2cncn2)C1 (stereo not given)	-8%	1.17
Cc1cc2nc[nH]c2c(NC(=O)CCc2cc3n(n2)CCNC3)c1C	-7%	1.44
O=C(c1ccc2nccn2c1)N1CCN(c2ccc(F)cc2)CC1	-11%	1.47
CN(CC1(c2ccccc2)CC1)C(=O)NCc1ccc(C(N)=O)o1	-6%	0.87
O=C(NCCC1=CCCCC1)c1cc(OCc2ccccc2)no1	-12%	2.3
Cc1n[nH]c(C)c1CN1CCC=C(F)C1	-11%	2.21
COc1cn(CC(=O)NCCc2ccccc2)c(CN2CCOCC2)cc1=O	-5%	0.94
O=C(CNC(=O)NCc1ccco1)NCCc1cc2ccccc2o1	2%	-0.17
Cc1cccc(CNC(=O)c2c(C)sc3ncnc(N4CCCC4)c23)c1	-11%	1.7
CC1c2cccn2CCN1CC(=O)NC(C)(C#N)C1CC1 (stereo not given)	-8%	1.03
COCc1ccnc(NC(=O)c2cncc(N3CCOCC3)c2)c1	-7%	1.42
O=C(c1nc(C2CC2)no1)N1CC(c2nc(-c3ccccc3)no2)C1	-21%	2.32
NC(=NCc1cccs1)C1CCCC1	-4%	0.52
CCCc1nnsc1C(=O)N[C@H]1CCC(=O)N(C)C1	-1%	0.17
Cc1c(CN(C)Cc2cnn(C)c2C2CC2)cnn1C	-2%	0.3
Cc1csc(-c2ccc(C(=O)NCCn3ccnc3)c(N3CCCCC3)n2)c1	-1%	0.13
COCCN1CC2(CCC1=O)CCN(C(=O)Nc1ccccc1OC)CC2	9%	-1.63
Cc1nc(CN2CC[C@H](NC(=O)c3scnc3C)[C@@H](O)C2)cs1	-4%	0.69
COc1ccc(Oc2ccc(Cl)cc2NC(=O)N2CC3(C2)CC3(F)F)cc1	9%	-1.56
Cc1nc(O)c(Br)cc1C(=O)NC1CC(F)(F)C1	-6%	0.73
CCc1noc(NC(C)=O)c1-c1ccc(OC)c(S(=O)(=O)NC2CCCCC2)c1	-7%	1.07
O=C(Nc1nc2ccc(S(=O)(=O)N3CCCCC3)cc2s1)C1CC2C=CC1C2 (stereo not given)	-18%	2.44

SMILES	% Inhibition	Z score
O=C(Nc1sc2c(c1C(=O)N1CCCCC1)CCCC2)[C@@H]1CCCO1	-7%	1.23
COCCC(=O)N1CC(N(Cc2ccncc2)CC2CC2)C1	-5%	0.98
CN(Cc1ccnc2ccccc12)C(=O)c1cccc([C@H]2CCCNC2)c1	6%	-1.12
CCCN(CCC)C(=O)c1csc(CN(CCC(c2ccccc2)c2ccccc2)Cc2ccc(Cl)cc2)n1	-10%	1.41
CN[C@H]1CCCN(C(=O)CN2CCNCC2=O)C1	-7%	1.2
C[C@@H](C1CCN(c2noc(-c3ccccc3)n2)CC1)N1CCN(C)CC1	1%	-0.26
O=C(Nc1ccsc1)N1CCN(Cc2ccccc2)CC1	-6%	0.83
Cc1ccccc1-c1ncc(-c2nccn2CCc2n[nH]c(=O)[nH]2)s1	-12%	1.35
C[C@H]1CCCN1C(=O)c1ccc(S(=O)(=O)NCc2ccncc2)cc1	6%	-0.92
Cc1cccc(C)c1OCC(=O)Nc1ccc(-n2cnnn2)cc1	-6%	0.95
C[C@@H](C(=O)OC(C)(C)C)c1nc(-c2nccc3ccccc23)no1	-8%	1.02
CC(C)(C)OC(=O)N[C@H]1CCN(Cc2ccc(C#N)cc2)C1	-13%	1.81
CCOC(=O)CNC(=O)NCCn1nnc2cc(C(=O)NC3CCCC3)ccc21	-3%	0.44
C[C@H](Oc1ccc(Cl)cc1C(N)=O)c1noc(-c2ccccc2)n1	-16%	2.14
O=C(C#Cc1ccc2c(c1)OCO2)NC(c1ccccc1)c1ccccc1	0%	-0.01
O=C1N(Cc2ccc(F)cc2)CCC[C@@]1(O)CN1CCCO1	-5%	0.85
O=C(Nc1ccc(OC(F)(F)F)cc1)C1CNC1	-12%	1.42
CCN(Cc1nn(-c2ccc(F)cc2)c2c1CN(Cc1ccc(F)cc1)CC2)C(=O)c1cccc(Cl)c1	9%	-1.17
COc1ccc(-c2nc3ccc(C(=O)NCc4ccccc4)cc3nc2-c2ccc(OC)cc2)cc1	1%	-0.15
